# Test results published in PubChem BioAssay (NCATS).
# Several values for one entry are separate records, joined by “and”; a condition that tells them apart may be missing. Identical values can stand only once. The inconclusive results got no clear call from the source; some entries with a clear call stand among them for comparison. Where the call is inconclusive, the potency comes from a doubtful curve fit. Activity calls are given as the source filed them. The call rests on the fitted dose curve; in most records, active means well fitted curve in the direction sought with a large enough effect; inconclusive means small, poorly fitted or top-dose-only effect, or another doubt; inactive means no such curve, though single readings can be large; an effect the other way counts as inactive or inconclusive.
# Legend:
# [1] = P-glycoprotein substrates identified in KB-8-5-11 adenocarcinoma cell line, qHTS therapeutic library screen (AID 1346987); further: nearly all actives have a fitted effect of over 65% in size
# In short: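 In this qHTS, P-gp-rich KB-8-5-11 cells received library compounds across a concentration range. Viability was quantified by luminescence after 72 h at 37 degree C.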
# CRL-7250 = normal cell line; assay: Cytotoxic Profiling of Annotated Libraries Using Quantitative High-Throughput Screening (AID 1296008); settings: Five cell lines viability, CellTiter-Glo ATP luminescence, 48-72 h; max response: stronger effect = lower value; further: nearly all actives have a fitted effect of over 60% in size; on max response: on the % scale 0 is the no-effect control and ±100 the full control effect
# In short: (§1)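 Cytotoxicity was measured as CellTiter-Glo ATP luminescence, read after 10 min at room temperature. Compound treatment of the cells lasted 48 or 72 hr at 37 degrees Celsius in a qHTS format.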
# HEK293 = assay: as above; settings: Five cell lines viability, CellTiter-Glo ATP luminescence, 48-72 h; max response: stronger effect = lower value
# In short: as §1
# HaCat = assay: as above; settings: Five cell lines viability, CellTiter-Glo ATP luminescence, 48-72 h; max response: stronger effect = lower value
# In short: as §1
# KB-3-1 = assay: as above; settings: Five cell lines viability, CellTiter-Glo ATP luminescence, 48-72 h; max response: stronger effect = lower value
# In short: as §1
# NIH3T3 = assay: as above; settings: Five cell lines viability, CellTiter-Glo ATP luminescence, 48-72 h; max response: stronger effect = lower value
# In short: as §1
# CAOV3 = assay: Primary qHTS to identify gynecologic anti-cancer compounds using libraries of approved drugs and bioactive compounds (AID 1345084); settings: Gynecologic cancer cell panel viability, ATPlite luminescence, 48 h; series mostly up to 57.5 µM; further: nearly all actives have a fitted effect of over 55% in size; on activity change, negative = cytotoxicity: on the % scale 0 is the no-effect control and ±100 the full control effect
# In short: (§2)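 Cell viability after 48 h drug treatment, ATPlite luminescence readout; five doses.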
# CASKI = assay: as above; settings: Gynecologic cancer cell panel viability, ATPlite luminescence, 48 h; activity change, negative = cytotoxicity: at 57.5 µM (top of the series)
# In short: as §2
# Es-2 = assay: as above; settings: Gynecologic cancer cell panel viability, ATPlite luminescence, 48 h; series mostly up to 57.5 µM
# In short: as §2
# OV90 = assay: as above; settings: Gynecologic cancer cell panel viability, ATPlite luminescence, 48 h; series mostly up to 57.5 µM
# In short: as §2
# SKOV3 = assay: as above; settings: Gynecologic cancer cell panel viability, ATPlite luminescence, 48 h; series mostly up to 57.5 µM
# In short: as §2
# Tov-21-G = assay: as above; settings: Gynecologic cancer cell panel viability, ATPlite luminescence, 48 h; activity change, negative = cytotoxicity: at 57.5 µM (top of the series)
# In short: as §2
# Tov112D = assay: as above; settings: Gynecologic cancer cell panel viability, ATPlite luminescence, 48 h; activity change, negative = cytotoxicity: at 57.5 µM (top of the series)
# In short: as §2
# [2] = Primary qHTS for inhibitors of nuclear receptor binding SET domain protein 2 (NSD2) in an RCH-ACV wild type WT cells (2C) (AID 1645877); settings: activity change, negative = cell killing: at 44.9 µM (top of the series); further: nearly all actives have a fitted effect of over 70% in size
# Hek293T = assay: Primary qHTS to identify gynecologic anti-cancer compounds using libraries of approved drugs and bioactive compounds (AID 1345084); settings: Gynecologic cancer cell panel viability, ATPlite luminescence, 48 h, control line for the selectivity index; series mostly up to 57.5 µM; further: nearly all actives have a fitted effect of over 55% in size; on activity change, negative = cytotoxicity: on the % scale 0 is the no-effect control and ±100 the full control effect
# In short: as §2
# C33A = assay: as above; settings: Gynecologic cancer cell panel viability, ATPlite luminescence, 48 h; series mostly up to 57.5 µM
# In short: as §2
# HeLa = assay: as above; settings: Gynecologic cancer cell panel viability, ATPlite luminescence, 48 h; series mostly up to 57.5 µM
# In short: as §2
# JEG-3 = assay: as above; settings: Gynecologic cancer cell panel viability, ATPlite luminescence, 48 h; series mostly up to 57.5 µM
# In short: as §2
# PA-1 = assay: as above; settings: Gynecologic cancer cell panel viability, ATPlite luminescence, 48 h; series mostly up to 57.5 µM
# In short: as §2
# Potency means the concentration at half of the fitted maximal effect; tags describe the fitted curve by direction and shape.
smiles,measurement,setting,value
CCCC(CCC)C(=O)Nc1ccn([C@@H]2O[C@H](CO)[C@@H](O)C2(F)F)c(=O)n1,Potency,[1],"inconclusive: 9.2 µM [inhibitor, partial curve, poor fit]"
same,Potency,CRL-7250,"inconclusive: 0.651 µM [inhibitor, full curve]"
same,Potency,HEK293,active: 6.51 µM
same,Potency,HaCat,"inconclusive: 6.51 µM [inhibitor, full curve, poor fit]"
same,Potency,KB-3-1,"inconclusive: 29.1 µM [inhibitor, single point]"
same,Potency,NIH3T3,active: 4.11 µM
same,Potency,CAOV3,"inconclusive: 39.8 µM [cytotoxic, single point]"
same,Potency,CASKI,"inconclusive: 22.4 µM [cytotoxic, partial curve]"
same,Potency,Es-2,"inconclusive: 8.91 µM [cytotoxic, full curve]"
same,Potency,OV90,"inconclusive: 0.631 µM [cytotoxic, full curve, poor fit]"
same,Potency,SKOV3,"inconclusive: 39.8 µM [cytotoxic, single point]"
same,Potency,Tov-21-G,"inconclusive: 15.8 µM [cytotoxic, partial curve, poor fit]"
same,Potency,Tov112D,active: 10 µM
O=C1NC(=O)C(c2cnc3ccccn23)=C1c1cn2c3c(cc(F)cc13)CN(C(=O)N1CCCCC1)CC2,Potency,[2],active: 5.2 nM and active: 10.5 nM
same,Potency,CRL-7250,active: 46.1 nM and active: 33.1 nM
same,Potency,HEK293,"inconclusive: 18.4 µM [inhibitor, single point] and active: 295 nM"
same,Potency,HaCat,"inconclusive: 23.1 µM [inhibitor, single point]"
same,Potency,KB-3-1,"inconclusive: 20.6 µM [inhibitor, single point]"
same,Potency,NIH3T3,"inconclusive: 8.2 µM [inhibitor, partial curve] and inconclusive: 26.3 µM [inhibitor, single point]"
same,Potency,CAOV3,inconclusive: 0.1 µM
same,Potency,Hek293T,inactive
same,Potency,OV90,inactive
same,Potency,SKOV3,inactive
COc1ccc(-c2ccc3c(N4CCOCC4C)nc(N4CCOCC4C)nc3n2)cc1CO (configuration not stated),Potency,CRL-7250,"inconclusive: 0.058 µM [inhibitor, full curve, poor fit]"
same,Potency,HEK293,active: 0.146 µM
same,Potency,HaCat,active: 2.91 µM
same,Potency,KB-3-1,"inconclusive: 0.184 µM [inhibitor, full curve]"
same,Potency,NIH3T3,active: 0.231 µM
same,Potency,C33A,inconclusive: 0.501 µM
same,Potency,CAOV3,"inconclusive: 0.447 µM [cytotoxic, full curve]"
same,Potency,CASKI,"inconclusive: 0.282 µM [cytotoxic, full curve, poor fit]"
same,Potency,Es-2,active: 0.282 µM
same,Potency,HeLa,"inconclusive: 3.16 µM [cytotoxic, full curve, poor fit]"
same,Potency,Hek293T,active: 0.316 µM
same,Potency,OV90,"inconclusive: 0.282 µM [cytotoxic, full curve, poor fit]"
same,Potency,SKOV3,"inconclusive: 0.1 µM [cytotoxic, full curve, poor fit]"
same,Potency,Tov112D,"inconclusive: 0.224 µM [cytotoxic, full curve]"
CC(C)=CCCC1(C)/C=C/C(OC(=O)C=C(C)C)C(C)(O)/C=C/C(=O)/C(CO)=C\C1 (configuration not stated),Potency,[1],"inconclusive: 15.9 µM [inhibitor, single point]"
same,Potency,[2],"inconclusive: 8.93 µM [inhibitor, partial curve, poor fit]"
same,max response,CRL-7250,inactive: -29.1%
same,Potency,HEK293,active: 2.52 µM
same,Potency,HaCat,"inconclusive: 0.0022 µM [inhibitor, full curve, poor fit]"
same,Potency,KB-3-1,"inconclusive: 14.2 µM [inhibitor, single point]"
same,Potency,NIH3T3,"inconclusive: 2.82 µM [inhibitor, full curve]"
same,Potency,C33A,"inconclusive: 17.8 µM [cytotoxic, single point]"
same,Potency,CAOV3,"inconclusive: 12.6 µM [cytotoxic, single point]"
same,Potency,CASKI,"inconclusive: 20 µM [cytotoxic, single point]"
same,Potency,Es-2,"inconclusive: 15.8 µM [cytotoxic, single point]"
same,Potency,HeLa,"inconclusive: 17.8 µM [cytotoxic, single point]"
same,Potency,Hek293T,active: 8.91 µM
same,Potency,JEG-3,"inconclusive: 12.6 µM [cytotoxic, single point]"
same,Potency,OV90,"inconclusive: 7.08 µM [cytotoxic, partial curve, poor fit]"
same,Potency,PA-1,"inconclusive: 20 µM [cytotoxic, partial curve, poor fit]"
same,Potency,SKOV3,"inconclusive: 20 µM [cytotoxic, partial curve, poor fit]"
same,Potency,Tov-21-G,"inconclusive: 12.6 µM [cytotoxic, single point]"
same,Potency,Tov112D,"inconclusive: 12.6 µM [cytotoxic, single point]"
Cc1cc(N2CCOCC2)ccc1Nc1nc(NC2CCCCC2)c2[nH]cnc2n1,Potency,[1],active: 1.3 µM
same,Potency,CRL-7250,"inconclusive: 29.1 µM [inhibitor, single point]"
same,Potency,HEK293,active: 0.326 µM
same,Potency,HaCat,"inconclusive: 0.058 µM [inhibitor, full curve, poor fit]"
same,Potency,KB-3-1,"inconclusive: 5.17 µM [inhibitor, partial curve]"
same,Potency,NIH3T3,"inconclusive: 0.082 µM [inhibitor, full curve]"
same,Potency,PA-1,"inconclusive: 1.41 µM [cytotoxic, full curve]"
same,Potency,SKOV3,"inconclusive: 0.158 µM [rising, full curve, poor fit]"
Cc1cc(CN)cc(C)c1NC(=O)c1ccc(-c2cc(Cl)ccc2Cl)o1,Potency,[1],active: 20.6 µM
same,Potency,[2],active: 9.16 µM
same,Potency,CRL-7250,"inconclusive: 29.1 µM [inhibitor, single point]"
same,Potency,HEK293,"inconclusive: 25.9 µM [inhibitor, single point]"
same,Potency,HaCat,"inconclusive: 14.6 µM [inhibitor, partial curve]"
same,Potency,KB-3-1,"inconclusive: 18.4 µM [inhibitor, single point]"
same,Potency,NIH3T3,"inconclusive: 20.6 µM [inhibitor, single point]"
same,Potency,Es-2,inactive
Cc1[nH]c(/C=C2\C(=O)Nc3ccc(F)cc32)c(C)c1C(=O)NC[C@H](O)CN1CCOCC1,Potency,[1],"inconclusive: 16.4 µM [inhibitor, single point]"
same,Potency,CRL-7250,active: 6.51 µM
same,Potency,HEK293,"inconclusive: 29.1 µM [inhibitor, single point]"
same,Potency,HaCat,"inconclusive: 6.51 µM [inhibitor, partial curve]"
same,Potency,KB-3-1,"inconclusive: 20.6 µM [inhibitor, single point]"
same,Potency,NIH3T3,"inconclusive: 25.9 µM [inhibitor, single point]"
same,Potency,CAOV3,"inconclusive: 10 µM [cytotoxic, partial curve, poor fit]"
same,Potency,Es-2,"inconclusive: 25.1 µM [cytotoxic, partial curve]"
same,Potency,HeLa,"inconclusive: 20 µM [cytotoxic, single point]"
same,Potency,PA-1,"inconclusive: 28.2 µM [cytotoxic, single point]"
same,Potency,SKOV3,"inconclusive: 11.2 µM [cytotoxic, partial curve, poor fit]"
same,Potency,Tov-21-G,"inconclusive: 15.8 µM [cytotoxic, partial curve, poor fit]"
CCOc1cc(N2CCC(O)CC2)ccc1Nc1ncc2c(n1)N(C1CCCC1)CCC(=O)N2C,Potency,[1],active: 11.6 µM
same,Potency,CRL-7250,active: 6.51 µM
same,Potency,HEK293,active: 5.8 µM
same,Potency,HaCat,"inconclusive: 29.1 µM [inhibitor, single point]"
same,Potency,KB-3-1,active: 7.31 µM
same,Potency,NIH3T3,active: 4.11 µM
same,Potency,CAOV3,"inconclusive: 17.8 µM [cytotoxic, partial curve]"
same,Potency,CASKI,"inconclusive: 10 µM [cytotoxic, partial curve, poor fit]"
same,Potency,Es-2,"inconclusive: 14.1 µM [cytotoxic, partial curve]"
same,Potency,HeLa,"inconclusive: 14.1 µM [cytotoxic, partial curve]"
same,Potency,Hek293T,"inconclusive: 2.24 µM [cytotoxic, partial curve, poor fit]"
same,Potency,OV90,"inconclusive: 14.1 µM [cytotoxic, partial curve, poor fit]"
same,Potency,PA-1,"inconclusive: 6.31 µM [cytotoxic, full curve]"
same,Potency,SKOV3,active: 8.91 µM
same,Potency,Tov-21-G,"inconclusive: 20 µM [cytotoxic, partial curve]"
CC(=O)NCC(=O)N1[C@H]2CC[C@H]1c1cc(Nc3ncc(C(F)(F)F)c(NC4CCC4)n3)ccc12,Potency,CRL-7250,"inconclusive: 3.32 µM [inhibitor, full curve, poor fit]"
same,Potency,HEK293,active: 5.26 µM
same,Potency,HaCat,active: 0.132 µM
same,Potency,KB-3-1,active: 1.66 µM
CN(C)CCCn1cc(C2=C(c3c[nH]c4ccccc34)C(=O)NC2=O)c2ccccc21,Potency,[1],"inconclusive: 8.2 µM [inhibitor, partial curve]"
same,Potency,CRL-7250,"inconclusive: 0.58 µM [inhibitor, partial curve, poor fit]"
same,Potency,HEK293,active: 14.6 µM
same,max response,HaCat,inactive: -0.893%
same,Potency,KB-3-1,"inconclusive: 23.1 µM [inhibitor, single point]"
same,Potency,NIH3T3,"inconclusive: 2.31 µM [inhibitor, partial curve]"
same,Potency,C33A,"inconclusive: 25.1 µM [cytotoxic, single point]"
same,Potency,CAOV3,"inconclusive: 39.8 µM [cytotoxic, single point]"
same,Potency,CASKI,"inconclusive: 17.8 µM [cytotoxic, partial curve, poor fit]"
same,Potency,HeLa,"inconclusive: 39.8 µM [cytotoxic, single point]"
same,Potency,Hek293T,active: 22.4 µM
same,Potency,OV90,"inconclusive: 28.2 µM [cytotoxic, single point]"
same,Potency,PA-1,"inconclusive: 31.6 µM [cytotoxic, partial curve, poor fit]"
same,Potency,SKOV3,"inconclusive: 15.8 µM [cytotoxic, single point]"
same,Potency,Tov-21-G,"inconclusive: 31.6 µM [cytotoxic, single point]"
same,Potency,Tov112D,"inconclusive: 39.8 µM [cytotoxic, single point]"
C=CCNc1c(O)cc2c(O)c1C[C@@H](C)C[C@H](OC)[C@@H](O)[C@@H](C)C=C(C)[C@H](OC(N)=O)[C@@H](OC)C=CC=C(C)C(=O)N2,Potency,CRL-7250,active: 0.0372 µM
same,Potency,HEK293,"inconclusive: 3.72 µM [inhibitor, full curve, poor fit]"
same,Potency,HaCat,active: 0.372 µM
same,Potency,KB-3-1,active: 0.0935 µM
Cn1cc(-c2cnn3c(N)c(Br)c([C@H]4CCCNC4)nc23)cn1,Potency,CRL-7250,active: 20.9 µM
same,Potency,HEK293,active: 0.418 µM
same,Potency,HaCat,"inconclusive: 18.7 µM [inhibitor, partial curve]"
same,Potency,KB-3-1,active: 10.5 µM
